The other results are listed elsewhere or left out.
Experiments:
HSkMC = human skeletal muscle cells; test: cytotoxicity call (relative viability < 0.9); details: 10 µM
HepG2 = test: cytotoxicity call (relative viability < 0.9); details: 10 µM
S. aureus RN4220 = test: growth inhibition call (relative growth <= 0.2); details: 50 µM

Row | SMILES | cytotoxicity call (HSkMC) | cytotoxicity call (HepG2) | growth inhibition call (S. aureus RN4220)
1 | C[C@@H]1CN([C@H](C)CO)S(=O)(=O)c2ccc(C#Cc3cccnc3)cc2O[C@@H]1CN(C)C(=O)Nc1ccc2c(c1)OCO2 | inactive | inactive | inactive
2 | CNC[C@@H]1Oc2ccc(NC(=O)CCN3CCOCC3)cc2CC(=O)N([C@H](C)CO)C[C@@H]1C | inactive | inactive | inactive
3 | C[C@H](CO)N1C[C@H](C)[C@H](CN(C)S(=O)(=O)c2cn(C)cn2)Oc2ccc(NC(=O)Nc3ccccc3)cc2C1=O | inactive | inactive | inactive
4 | O=C(O)Cc1nnc(-c2ccncc2)[nH]1 | inactive | inactive | inactive
5 | C[C@H](CO)N1C[C@H](C)[C@H](CN(C)S(C)(=O)=O)Oc2ccc(NC(=O)Nc3ccc(F)cc3)cc2C1=O | inactive | inactive | inactive
6 | COCCNCc1ccc(-c2cc3nccc(Oc4ccc(NC(=O)C5(C(=O)Nc6ccc(F)cc6)CC5)cc4F)c3s2)nc1 | active | active | inactive
7 | Cc1cc(S(=O)(=O)N2CCCO[C@@H]2CNC(=O)C(=O)NCc2ccncc2)ccc1F | inactive | inactive | inactive
8 | CN(C)c1ccc2nc3ccc(N(C)C)cc3[s+]c2c1.O.[Cl-] | active | active | inactive
9 | O=C(O)c1cc(O)ccc1O | inactive | inactive | inactive
10 | Cc1ccc(S(=O)(=O)N(C)C[C@@H]2Oc3c(NC(=O)C4CC4)cccc3C(=O)N([C@H](C)CO)C[C@@H]2C)cc1 | inactive | inactive | inactive
11 | OC[C@H]1O[C@H]([S][Au])[C@H](O)[C@@H](O)[C@@H]1O | inactive | active | inactive
12 | O=C(CCCCCNC(=O)OCCCCO[C@H]1C[C@@H](c2ccc3c(c2)OCO3)C=C(C(=O)N2CCOCC2)O1)NO | inactive | inactive | inactive
13 | Cc1ccc(-c2nc(-c3ccc(Cl)cc3)cs2)cc1F | inactive | inactive | inactive
14 | COc1ccc(C#Cc2cnc3c(c2)C(=O)N([C@@H](C)CO)C[C@H](C)[C@@H](CN(C)C(=O)CC2CC2)O3)cc1 | inactive | inactive | inactive
15 | CN(C)C(=O)C[C@@H]1CC[C@@H]2[C@H](COC[C@H](O)CN2S(=O)(=O)c2ccccc2)O1 | inactive | inactive | inactive
16 | COc1ccccc1S(=O)(=O)N(C)C[C@H]1Oc2ncc(Br)cc2C(=O)N([C@@H](C)CO)C[C@H]1C | inactive | inactive | inactive
17 | C[C@H]1CN([C@@H](C)CO)C(=O)Cc2cc(NC(=O)CCN3CCOCC3)ccc2O[C@H]1CN(C)S(=O)(=O)c1ccccc1 | inactive | inactive | inactive
18 | C[C@H](CO)N1C[C@H](C)[C@@H](CN(C)C(=O)Nc2ccc(F)cc2)OCc2ccccc2-c2ccccc2C1=O | inactive | inactive | inactive
19 | C[C@H](CO)N1C[C@H](C)[C@@H](CN(C)C(=O)C2CCOCC2)Oc2cc(-c3ccc(F)cc3)ccc2S1(=O)=O | inactive | inactive | inactive
20 | C=c1nc(C)sc1=C1NN=C(N)O1 | inactive | inactive | inactive

Row | SMILES | cytotoxicity call (HSkMC) | cytotoxicity call (HepG2) | growth inhibition call (S. aureus RN4220)
21 | C[C@@H]1CN([C@@H](C)CO)C(=O)c2cc(NC(=O)Nc3ccccc3)ccc2O[C@@H](C)CCCCO[C@H]1CN(C)C(=O)Nc1cccc2ccccc12 | inactive | inactive | inactive
22 | Cc1noc(C)c1S(=O)(=O)N(C)C[C@H]1OCCCC[C@@H](C)Oc2ccc(NC(=O)Nc3ccccc3)cc2C(=O)N([C@H](C)CO)C[C@@H]1C | inactive | inactive | inactive
23 | O=C1NCCN1CCNC(=S)NC1CC1 | inactive | inactive | inactive
24 | C/C=C/c1cccc(-c2nc(C(=O)NCc3cccc(OC)c3)cc3c2[C@@H](CCO)N([S@](=O)C(C)(C)C)C3)c1 | inactive | inactive | inactive
25 | CN1CCN(c2c(F)cc3c(=O)c(C(=O)O)cn4c3c2OCN4C)CC1 | inactive | inactive | active
26 | CSc1n[nH]c(=O)c2cc(C)nn12 | inactive | inactive | inactive
27 | O=C(C[C@H]1CC[C@@H]2[C@H](COC[C@@H](O)CN2Cc2ccccc2F)O1)N[C@H]1CCN(Cc2ccccc2)C1 | inactive | inactive | inactive
28 | C[C@@H]1CN([C@@H](C)CO)C(=O)c2cc(NC(=O)Nc3ccc(C(F)(F)F)cc3)ccc2O[C@@H](C)CCCCO[C@H]1CN(C)CC1CCCCC1 | inactive | inactive | inactive
29 | Cc1ccc(S(=O)(=O)Nc2ccc3c(c2)C(=O)N([C@H](C)CO)C[C@H](C)[C@@H](CN(C)C(=O)c2ccccc2)OCCCC[C@H](C)O3)cc1 | inactive | inactive | inactive
30 | CN1CCN(C(=O)C[C@@H]2CC[C@@H]3[C@H](COC[C@H](O)CN3C(=O)Nc3ccc4c(c3)OCO4)O2)CC1 | inactive | inactive | inactive
31 | C[C@H](CO)N1C[C@H](C)[C@@H](CN(C)C(=O)Nc2ccc3c(c2)OCO3)OCc2ccccc2-c2c(n(C)c3ccccc23)C1=O | inactive | inactive | inactive
32 | C[C@@H]1CN([C@H](C)CO)C(=O)CCCn2cc(nn2)CO[C@@H]1CN(C)S(=O)(=O)c1ccc2c(c1)OCCCO2 | inactive | inactive | inactive
33 | NCCC(=O)N[C@@H](Cc1cnc[nH]1)C(=O)O | inactive | inactive | inactive
34 | Nc1nc2nn[nH]c2c(=O)[nH]1 | inactive | inactive | inactive
35 | O=C(CN1CCOCC1)N[C@H]1CC[C@H](CCNC(=O)Nc2cc(F)ccc2F)O[C@H]1CO | inactive | inactive | inactive
36 | C[C@@H]1CCCCO[C@@H](CN(C)S(=O)(=O)c2ccc(F)cc2)[C@@H](C)CN([C@H](C)CO)C(=O)c2cc(NS(C)(=O)=O)ccc2O1 | inactive | inactive | inactive
37 | COCCN1CCNCC1 | inactive | inactive | inactive
38 | CN1CCN([C@@H](CNC(=O)C(=O)NCc2ccco2)c2ccc3c(c2)OCO3)CC1 | inactive | inactive | inactive
39 | C[C@H](O)C#Cc1ccc2c(c1)O[C@H](CN(C)C(=O)CN(C)C)[C@H](C)CN([C@@H](C)CO)S2(=O)=O | inactive | inactive | inactive
40 | C[C@H](CO)N1C[C@H](C)[C@@H](CN(C)Cc2ccc(-c3ccccc3)cc2)Oc2ccc(NC(=O)CCC(F)(F)F)cc2C1=O | inactive | inactive | inactive

Row | SMILES | cytotoxicity call (HSkMC) | cytotoxicity call (HepG2) | growth inhibition call (S. aureus RN4220)
41 | O=C1O[C@@H](c2ccccc2)[C@@H](c2ccccc2)N2[C@@H](c3ccc(OCCO)cc3)[C@]3(C(=O)Nc4ccc(C#CC5(O)CCCCCC5)cc43)[C@@H](C(=O)N3CCCCCCC3)[C@H]12 | inactive | inactive | inactive
42 | C[C@@H]1CCCCO[C@H](CN(C)C(=O)Nc2ccc(C(F)(F)F)cc2)[C@@H](C)CN([C@@H](C)CO)C(=O)c2cc(NS(=O)(=O)c3ccc(F)cc3)ccc2O1 | inactive | inactive | inactive
43 | Cc1ccc(S(=O)(=O)N[C@@H](Cc2ccccc2)C(=O)NCCCn2cc(C(=O)NO)nn2)cc1 | inactive | inactive | inactive
44 | C[C@H]1CN([C@@H](C)CO)C(=O)Cc2cc(NC(=O)C3CCCCC3)ccc2O[C@@H]1CN(C)Cc1ccc(Cl)c(Cl)c1 | inactive | inactive | inactive
45 | CN(C)C(=O)C[C@@H]1CC[C@H]2[C@@H](COc3ccc(NS(=O)(=O)c4cccc(F)c4)cc3C(=O)N2C)O1 | inactive | inactive | inactive
46 | CCNC(=O)C[C@@H]1CC[C@@H]2[C@H](COC[C@H](O)CN2C(=O)Nc2c(C)noc2C)O1 | inactive | inactive | inactive
47 | CC(C)NC(=O)Nc1cccc2c1O[C@@H](CN(C)S(=O)(=O)c1cccs1)[C@H](C)CN([C@H](C)CO)C2=O | inactive | inactive | inactive
48 | C[C@@H]1CN([C@H](C)CO)C(=O)c2cc(NS(=O)(=O)c3ccc(F)cc3)ccc2O[C@@H](C)CCCCO[C@@H]1CN(C)C(=O)c1ccccc1 | inactive | inactive | inactive
49 | O=C(C[C@@H]1CC[C@H]2[C@@H](COC[C@@H](O)CN2C(=O)c2ccccc2)O1)N1CCOCC1 | inactive | inactive | inactive
50 | C[C@H](CO)N1C[C@H](C)[C@@H](CN(C)Cc2cccc(O)c2)OCc2ccccc2-c2c(n(C)c3ccccc23)C1=O | inactive | inactive | inactive
51 | C=CCN(CC=C)S(=O)(=O)c1nnc[nH]1 | inactive | inactive | inactive
52 | Cc1noc(C)c1S(=O)(=O)Nc1ccc2c(c1)C(=O)N([C@H](C)CO)C[C@H](C)[C@H](CN(C)S(=O)(=O)c1cn(C)cn1)OCCCC[C@H](C)O2 | inactive | inactive | inactive
53 | COc1ccc(S(=O)(=O)Nc2ccc3c(c2)CC(=O)N([C@H](C)CO)C[C@H](C)[C@@H](CN(C)S(=O)(=O)c2ccc(OC)cc2)O3)cc1 | inactive | inactive | inactive
54 | C[C@H](CO)N1C[C@H](C)[C@H](CN(C)C(=O)C2CCCCC2)Oc2cc(Br)ccc2S1(=O)=O | inactive | inactive | inactive
55 | C[C@@H]1CN([C@@H](C)CO)C(=O)c2cc(NC(=O)CCC(F)(F)F)ccc2O[C@@H](C)CCCCO[C@@H]1CN(C)C(=O)Cc1ccccc1 | inactive | inactive | inactive
56 | COc1ccc(S(=O)(=O)Nc2ccc3c(c2)CC(=O)N([C@@H](C)CO)C[C@H](C)[C@@H](CN(C)S(=O)(=O)c2ccc(F)cc2)O3)cc1 | inactive | inactive | inactive
57 | C[C@H]1CN([C@@H](C)CO)C(=O)c2cc(NS(=O)(=O)c3ccc(F)cc3)ccc2O[C@@H]1CN(C)Cc1ccc(Cl)c(Cl)c1 | active | active | inactive
58 | C=C1NC(=O)CN1c1ccc(N)cc1 | inactive | inactive | inactive
59 | C[C@@H]1CN([C@H](C)CO)C(=O)c2c(c3ccccc3n2C)-c2ccccc2CO[C@H]1CN(C)Cc1cccc(C(=O)O)c1 | inactive | inactive | inactive
60 | COc1ccc(S(=O)(=O)N(C)C[C@@H]2OCCCC[C@@H](C)Oc3ccc(NC(=O)Nc4cccc5ccccc45)cc3C(=O)N([C@H](C)CO)C[C@H]2C)cc1 | inactive | inactive | inactive
